From the RNAGym collection of RNA variant scans (doi:10.1093/nar/gkz1192)
Read counts are not given, so values of variants with three or more changes are uncertain.

B1: CPEB3 Ribozyme (parent)
chain: UAACAGGGGGCCACAGCAGAAGCGUUCACGUCGCAGCCCCUGUCAGAUUCUGGUGAAUCUGCGAAUUCUGCUGUAUAUCUC

Variants of: B1
Test: self-cleavage, relative activity (ratio to wild type); higher = more cleavage; in vitro, sequencing
Method in brief: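 Libraries of CPEB3 self-cleaving ribozyme mutants came from rounds of error-prone PCR and carried barcodes, which DNA sequencing matched to variants. In vitro transcription used T7 RNA polymerase at 37°C for 5 hours, with a further 15 min in DNase I before EDTA stopped the reaction; the ribozymes cleaved during both steps. The RNA was reverse transcribed with template switching and sequenced on Illumina. Relative activity is the cleaved/total read fraction of a variant divided by that of the unmutated ribozyme, averaged over three batches with at least 5 reads.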
Work on AACCGGGGGGCCGCAGCAGAAGCGUUCACGUCGCAGCCCCCGUCAGAUUCUGGUGAACCUGCGAAUUCUGCUGUAUAUCUC [U1A A3C A5G A13G U41C U58C] yielded a self-cleavage of 0.58.
With AAACGGGGGGCCACAGCAGUAGCGUUCACGUCGCAGCCCCUGUCAGAUUCUGGUGAAUCCGCGAAUUCUGCUGUAUAUCUC [U1A A5G A20U U60C] the self-cleavage was 0.1.
For AAGCAGGGGGCCACAGCAGAAGCGCUCACGUCGCAGCCCCUGUCAGAUUCUGGUGAAUCUGCGAAUUCUGCUGUAUAUCUC [U1A A3G U25C], the self-cleavage was 0.13.
Variant AAACAGGGGGCCUCAGCAGAAGCGUUCACGUCGCAGCCCCUGUCAGAUUCUGGUGGAUCUACGAAUUCUGCUGUAUACCUC [U1A A13U A56G G61A U78C] has a self-cleavage of 0.52.
AAACGGGGGGCCACAGCAGAAGCGUUCACGUCGCUGCCCCUUUCAGAUUCUGGUGAAUCUGCGAAUUCUGCUGUAUAUCCC [U1A A5G A35U G42U U80C] showed a self-cleavage of 0.12.
Variant AGACAGGGGGCCACAGCAGAAGCGUUCACGUCGCAGCCCCUGUCAGAUUCUGGAGAAUCUGCGAAUUCUGCUGUAUAUCUC [U1A A2G U54A] has a self-cleavage of 0.92.
With AGACAGGGGGCCUCAGCAGAAGCGUUCACGUCGCAGCCCCUGUCAGAUUCUGGUGAAUCUGCGAACUCUGCUGUAUAUCUC [U1A A2G A13U U66C] the self-cleavage was 0.48.
For AAACAGGGGGCCCCAGCAGAAGCGUUCACGUCGCAGCCCCUGCCAGAUUCUGGUGAGUCUGCGAAUUCUGCUGUAUAUCUC [U1A A13C U43C A57G], the self-cleavage was 0.16.
In the case of ACGCAGGGGGCCACAGCAGAAGCGUUCACGUCGCAGCCCCUGUCAGAUUCUGGCGAAUCUGCGAAUUCUGCUGUAUAUCUC [U1A A2C A3G U54C], the self-cleavage is reported as 1.3.
ACACAGGGGGCCACAGCGGAAGCGUUCACGUCGCAGCCCCUGUCAGGUUCUGGUGAAUCUGCGAAUUCUGCUGUAUAUCUC [U1A A2C A18G A47G] showed a self-cleavage of 0.53.
AACCAGGGGGCCACAGCAGAAGCGUUCACGUCGCAGCCCCUGUCAGAUUCUGGUGAGUCUGCGAAUUCCGCUGUGUAUCUC [U1A A3C A57G U69C A75G] gave a self-cleavage of 0.76.
Variant AAGCAGGGGGCCACAGCAGAAGCGUUCACGUCGCAGCCCCUGUCAGAUUCUGGUGAAUCCGCGAAUUCUGCUGUAUAUCUC [U1A A3G U60C] has a self-cleavage of 0.59.
AAACAGGGGGCCUUAGCAGAAGCGUUCACGUCGCAGCCCCUGUCAGAUCCUGGUGAAUCUGCGAAUUCUGCUGUAUAUCUC [U1A A13U C14U U49C] gave a self-cleavage of 0.55.
Work on AGACAGGGGGCCUCAGCAGAAGCGUUCACGUCGCGGCCCCUGACAGAUUCUGGUGAAUCUGCGAAUUCCGCUGUAUAUCUC [U1A A2G A13U A35G U43A U69C] yielded a self-cleavage of 1.15.
For AACCAGGGGGCCUCAGCAGAAGCGUUCACGUCGCAGCCCCUGUCAGAUUCUGGUGAAUCUGCGAAUUCUGCUGUAUAUCUG [U1A A3C A13U C81G], the self-cleavage was 1.23.
Work on AGACAGGGGGCCACACCAGAAGCGUUCACGUCGCAGCCCCUGUCAGAUUCUGGUGAAUCUGCGAAUUCUGCUGUAUAUCUC [U1A A2G G16C] yielded a self-cleavage of 0.57.
Work on AGACAGGGGGCCAUAGCAGAAGCGUUCACGUCGCAGCCCCUGUCGGACUCUGGUGAAUCUGCGAAUCCUGCUGUAUAUCUC [U1A A2G C14U A45G U48C U67C] yielded a self-cleavage of 0.19.
In the case of AAACGGGGGGCCACAGCAGAAGCGUUCACGUCGCAGCCCCAGUCAGAUUCUGGAGAAUCUGCGAAUGCUGCUGUAUAUCUC [U1A A5G U41A U54A U67G], the self-cleavage is reported as 0.24.
ACCCAGGGGGCCACAGCAGAAGCGUUCACGUCGCAGCCCCUGUCAGAUUCUGGUGAAUCUGCGAAUUCUGCUGUAUAUCUU [U1A A2C A3C C81U] showed a self-cleavage of 1.23.
AUACAGGGGGCCACAGCAGAAGCGUUCACGUCGCAGCCCCUGUCAGAUUCUGGUGAAUCUGCGAAUUCAGCUGUAUAUCUC [U1A A2U U69A] gave a self-cleavage of 0.61.
Variant AAUCAGGGGGCCACAGCAGAAGCGCUCACGUCGCGGCCCCUGUCAGAUUCUGGUGAAGCUGCGAAUUCUGCUGUACAUCUC [U1A A3U U25C A35G U58G U76C] has a self-cleavage of 0.12.
AAACCGGGGGCCACAGCAGAAGCGUUCACGUCGCAGCCCCUUUCAGAUUCUGGUGAAUCUGCGAAUCCUGCUGUAUAUCUC [U1A A5C G42U U67C] gave a self-cleavage of 0.28.
Variant AACCAGGGGGCCACAGCAGAAGCGUUCACGUCGCAGCCCCUGUCAGACUCUGGUGAGUCUGCGAAUUCCGGUGUAUAUCUC [U1A A3C U48C A57G U69C C71G] has a self-cleavage of 0.21.
For AAGCAGGGGGCCACAGCAGAAGCGUCCACGUCGCAGCCCCUGUCAGAUUCUGGUGAAUCUGCGAAUUCUGCUGUAUAUCUC [U1A A3G U26C], the self-cleavage was 0.65.
For AAGCAGGGGGCCUCAGCAGAAGCGUUCACGUCGCAGCCCCUGUCAGAUUCUGGUGAAUCUGCGAAUUCUGCUGUAUAUCUC [U1A A3G A13U], the self-cleavage was 1.03.
AAACCGGGGGCCACAGCAGAAGCGUUCACGUCGCAGCCCCUGUCAGAUUCUGGUGAAUCUGCGGAUUCUGCUGUACAUCUC [U1A A5C A64G U76C] showed a self-cleavage of 0.94.
Work on AAACAGGGGGCCUCAGCAGAGGCGCUCGCGUCGCAGCCCCUGUCAGAUUCUGGUGAAUAUGCGAAUUCUGCUGCAUAUCUC [U1A A13U A21G U25C A28G C59A U74C] yielded a self-cleavage of 0.15.
AAGCAGGGGGCCACUGCAGGAGCGUUCACGUCGCAGCCCCUGUCAGAUUCUGGUGAAUCUGCGAAUUCUGCUGUAUAUCUC [U1A A3G A15U A20G] gave a self-cleavage of 0.88.
AAACCGGGGGCCACAGCAGAAGCGUUCACGUCGCAGCCCCUGUCAGAUUCCGGUGAAUCUGCGAAUUCUGCUGUAUAUCUC [U1A A5C U51C] gave a self-cleavage of 0.65.
In the case of AAACUGGGGGCCACAGCAGAAGCGUUCACGUCGCAGCCCCUGUCAGAUUCUGGUGAAUCUGCGAAUCCUGCUGUAUAUCUC [U1A A5U U67C], the self-cleavage is reported as 0.2.
Variant AAACGGGGGGCCACAGCAGAAGCGUUCACGUCGCAGCACCUAUCGGAUUCUGGUGAAUCUGCGAAUUCUGCCGUAUAUCUC [U1A A5G C38A G42A A45G U72C] has a self-cleavage of 0.33.
With AAGCAGGGGGCCACAGCAGUAGCGUCCACGUCGCGGCCCCUGUCAGAUUCUGGUGAAUCUGCGAAUUCUGCGGUAUAUCUC [U1A A3G A20U U26C A35G U72G] the self-cleavage was 0.47.
Variant AGACAGGGGGCCACAGCAGAAGCGUUCACGUCGCAGCCCCUGUCAGAUUCUGGUGAAUCUGCGAAUUCUGCUGUAUUUCUC [U1A A2G A77U] has a self-cleavage of 0.99.
AUACAGGGGGCCACAGCGGAAGCGUUCACGUCGCAGCCCCUGUCAGAUUCUGGCGAAUCUGCGAAUUCUACUGUAUAUCUC [U1A A2U A18G U54C G70A] showed a self-cleavage of 0.23.
